Measured values taken from the RNAGym collection of RNA variant scans (doi:10.1093/nar/gkz1192).
Read counts are not given, so values of variants with three or more changes are uncertain.

B1: CPEB3 Ribozyme (parent)
chain: UAACAGGGGGCCACAGCAGAAGCGUUCACGUCGCAGCCCCUGUCAGAUUCUGGUGAAUCUGCGAAUUCUGCUGUAUAUCUC

Variants of: B1
Assay: self-cleavage, relative activity (ratio to wild type); higher = more cleavage; in vitro, sequencing
Procedure, shortened: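 Barcoded CPEB3 ribozyme mutants, produced by rounds of error-prone PCR, self-cleaved while being transcribed with T7 RNA polymerase for 5 hours at 37°C and during a subsequent 15 min DNase I step before EDTA was added. Sequencing of template-switched cDNA on Illumina gave cleaved and total reads, and DNA sequencing assigned barcodes to variants. Each variant's relative activity is its cleaved/total read fraction divided by the unmutated ribozyme's fraction, averaged across three batches. A variant needed a minimum of 5 reads.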

Row | Variant | self-cleavage
1 | UAACGGGGGGCCACAGCAGAAGCGUUCACGCCGCAGCCCCAGUCAGAUUCUGGUGAAUCUGCGAAUUCUGCUGUAUAUCUC [A5G U31C U41A] | 0.49
2 | UAACGGGGGGCCACAGCAGAAGCGUUCACGCCGCAGCCCCCGUCAGAUUCUGGUGAAUCUGCGAAUUCUGCUGUAUAUCUC [A5G U31C U41C] | 0.66
3 | UAACGGGGGGCCACAGCAGAAGCGUUCACGCCGCAGCCCCCGUCGGAUUCUGGUGAAUCUGCGAAUUCUGCUGUAUAUCUC [A5G U31C U41C A45G] | 0.58
4 | UAACGGGGGGCCACAGCAGAAGCGUUCACGCCGCAGCCCCUGCCAGAUUCUGGUGAAUCUGCGAAUUCUGCUGUAUAUCUC [A5G U31C U43C] | 0.26
5 | UAACGGGGGGCCACAGCAGAAGCGUUCACGCCGCAGCCCCUGUCAGAUCCUGGUGAAUCUGCGAAUUCUGCUGUAUAUCUC [A5G U31C U49C] | 0.31
6 | UAACGGGGGGCCACAGCAGAAGCGUUCACGCCGCAGCCCCUGUCAGAUCCUGGUGAAUCUGCGAAUUCUGCAGUAUAUCUU [A5G U31C U49C U72A C81U] | 0.26
7 | UAACGGGGGGCCACAGCAGAAGCGUUCACGCCGCAGCCCCUGUCAGAUUCAGGUGAAUCUGUGAAUUCCGCCGUAUAUCUC [A5G U31C U51A C62U U69C U72C] | 0.09
8 | UAACGGGGGGCCACAGCAGAAGCGUUCACGCCGCAGCCCCUGUCAGAUUCUGGAGAAUCUGCGAAUCCAGCUGUAUAUCUC [A5G U31C U54A U67C U69A] | 0.13
9 | UAACGGGGGGCCACAGCAGAAGCGUUCACGCCGCAGCCCCUGUCAGAUUCUGGGGAAUCUGCGAAUUCUGCCGUAUAUCUC [A5G U31C U54G U72C] | 0.26
10 | UAACGGGGGGCCACAGCAGAAGCGUUCACGCCGCAGCCCCUGUCAGAUUCUGGUGAAUCUGCGAAUUCUGCUGCAUAUCUC [A5G U31C U74C] | 0.81
11 | UAACGGGGGGCCACAGCAGAAGCGUUCACGCCGCAGCCCCUGUCAGAUUCUGGUGAAUCUGCGAAUUCUGCUGUACACCUC [A5G U31C U76C U78C] | 0.25
12 | UAACGGGGGGCCACAGCAGAAGCGUUCACGUCGCAGCCCCAGUCAGGUUCAGGUGAAUCUGCGAAUUCCGCUGUAUAUCUC [A5G U41A A47G U51A U69C] | 0.33
13 | UAACGGGGGGCCACAGCAGAAGCGUUCACGUCGCAGCCCCAGUCAGAUUCUGGUGGAUCUGCGAGCUCUGCUGUAUAUCUC [A5G U41A A56G A65G U66C] | 0.16
14 | UAACGGGGGGCCACAGCAGAAGCGUUCACGUCGCAGCCCCAGUCAGAUUCUGGUGAUUCUGCGAACUAUGCUGUAUAUCUC [A5G U41A A57U U66C C68A] | 0.14
15 | UAACGGGGGGCCACAGCAGAAGCGUUCACGUCGCAGCCCCAGUCAGAUUCUGGUGAAUCUGUGAGUUCUGCUGUAUUUCUC [A5G U41A C62U A65G A77U] | 0.48
16 | UAACGGGGGGCCACAGCAGAAGCGUUCACGUCGCAGCCCCAGUCAGAUUCUGGCGUACCUGCGAAUUCAGCUGUAUAUCUC [A5G U41A U54C A56U U58C U69A] | 0.05
17 | UAACGGGGGGCCACAGCAGAAGCGUUCACGUCGCAGCCCCAGUCAGAUUCUGGUGAACCUGCGAAUUCUGCUGUAUAUCUC [A5G U41A U58C] | 0.17

Row | Variant | self-cleavage
18 | UAACGGGGGGCCACAGCAGAAGCGUUCACGUCGCAGCCCCAGUCAGAUUCUGGUGAAUCUGCGAAUUCUGCUGUAUAACUC [A5G U41A U78A] | 0.31
19 | UAACGGGGGGCCACAGCAGAAGCGUUCACGUCGCAGCCCCAGUCAGAUUCUGGUGAAUCUGCGAAUUCUGCUGUAUAUCAC [A5G U41A U80A] | 0.56
20 | UAACGGGGGGCCACAGCAGAAGCGUUCACGUCGCAGCCCCCGUCAGAUUCUGGUGUAUCUGCGAAUUCUGCUGUAUAUCUC [A5G U41C A56U] | 0.47
21 | UAACGGGGGGCCACAGCAGAAGCGUUCACGUCGCAGCCCCCCUCAGAUUCUGGUGAAUCUGCGAACUCUGCUGUAUAUCUC [A5G U41C G42C U66C] | 0.09
22 | UAACGGGGGGCCACAGCAGAAGCGUUCACGUCGCAGCCCCCGACAGAUUCUGGUGAGUCUGCGAACUCUGCUGUAUAUCUC [A5G U41C U43A A57G U66C] | 0.15
23 | UAACGGGGGGCCACAGCAGAAGCGUUCACGUCGCAGCCCCCGACAGAUUCUGGUGAAUCUGCGAACUCUGCUGUAUAUCAC [A5G U41C U43A U66C U80A] | 0.22
24 | UAACGGGGGGCCACAGCAGAAGCGUUCACGUCGCAGCCCCCGCCAGAUUCUGGUGAAUCUGCGAAUUCUGCUGUAUAUCUC [A5G U41C U43C] | 0.12
25 | UAACGGGGGGCCACAGCAGAAGCGUUCACGUCGCAGCCCCCGUCAGACUCUGGUGAAUCUGCGUAUUCUGCUGUAUAUCUC [A5G U41C U48C A64U] | 0.19
26 | UAACGGGGGGCCACAGCAGAAGCGUUCACGUCGCAGCCCCCGUCAGAUUCUGGUGAAUCCGCGGAUUCUGCUGUAUAUCAC [A5G U41C U60C A64G U80A] | 0.09
27 | UAACGGGGGGCCACAGCAGAAGCGUUCACGUCGCAGCCCCCGUCAGAUUCUGGUGAAUCUGCGAAAUCUGCUGUAUAUCUC [A5G U41C U66A] | 0.07
28 | UAACGGGGGGCCACAGCAGAAGCGUUCACGUCGCAGCCCCGGUCGGAUUCUGGUGAAUCUGCGAAUUCUGCUGUAUAUCUC [A5G U41G A45G] | 0.07
29 | UAACGGGGGGCCACAGCAGAAGCGUUCACGUCGCAGCCCCUGACAGAUUCUGGUGGAUCUGCGAAUUCUGCUGUAUAUCCC [A5G U43A A56G U80C] | 0.4
30 | UAACGGGGGGCCACAGCAGAAGCGUUCACGUCGCAGCCCCUGACAGAUUCUGGUGAGUCUGCGAAUUCUGCUGUAUACCAC [A5G U43A A57G U78C U80A] | 0.22
31 | UAACGGGGGGCCACAGCAGAAGCGUUCACGUCGCAGCCCCUGACAGAUUCUGGUGAAUCUGCGGGUUCUGCUGUAUAUCUC [A5G U43A A64G A65G] | 0.17
32 | UAACGGGGGGCCACAGCAGAAGCGUUCACGUCGCAGCCCCUGACAGAUUCUGGAGAAUCUGCGAAUCCUGCUGUAUAUCUC [A5G U43A U54A U67C] | 0.15
33 | UAACGGGGGGCCACAGCAGAAGCGUUCACGUCGCAGCCCCUGCCGGGCUCUGGUGAGUCUGCGAAUUCUGCAGUAUAUCUC [A5G U43C A45G A47G U48C A57G U72A] | 0.13
34 | UAACGGGGGGCCACAGCAGAAGCGUUCACGUCGCAGCCCCUGCCGGAUUCUGGUGAAUCUGCGAAUUCAGCUGUAUAUCUC [A5G U43C A45G U69A] | 0.11
